Measurements: patent publication US20200400567A1, “FUSION POLYPEPTIDE” (PEKING UNIVERSITY, priority 2017, published 2020)
“Also recorded” adds a separate entry of the source.

Experiments:
M3R receptor = target: T1, M3R receptor (Homo sapiens, UniProt P20309, DEL260-491); experiment: ICL3-truncated M3R acetylcholine sensors (GRAB-ACh4.0), Opera Phenix and confocal perfusion in HEK293T cells; type: cell-based
T1 construct: pDisplay N-terminal leader (vector stated); expressed in transfected cells; host or cells: HEK293T
T1 sequence (P20309 with tags, fused parts or gaps DEL260-491): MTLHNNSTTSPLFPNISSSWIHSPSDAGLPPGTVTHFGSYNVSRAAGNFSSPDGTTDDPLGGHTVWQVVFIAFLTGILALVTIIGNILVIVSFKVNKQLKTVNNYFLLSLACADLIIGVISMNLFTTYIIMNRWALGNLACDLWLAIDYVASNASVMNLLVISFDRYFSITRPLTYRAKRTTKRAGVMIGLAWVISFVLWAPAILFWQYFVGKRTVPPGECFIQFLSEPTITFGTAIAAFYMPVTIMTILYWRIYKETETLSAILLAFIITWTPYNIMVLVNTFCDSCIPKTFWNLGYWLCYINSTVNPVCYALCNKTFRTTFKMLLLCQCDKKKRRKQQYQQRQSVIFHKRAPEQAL
Experimental: Opera Phenix™ enables confocal imaging of 60 wells in the center of a 96-well plate at a time, using a 63× water lens. Before the experiment, the cell medium was exchanged with 100 μL of the physiological solution, and the plate was placed on a sample holder and put into the instrument. The appropriate imaging focal plane, excitation wavelength and laser intensity, imaging wells and the imaging field of each well were set. After running the program, all selected areas will be automatically imaged by the instrument. After the first imaging was completed, the 96-well plate was taken out, and the physiological solution in each well was exchanged with a physiological solution containing a drug of desired concentration, and imaging was performed again.
After the two images were completed, using the Harmony analysis software, red fluorescence from mCherry was employed to locate the membrane area of the cells in each field (the CAAX sequence in the RFP enables it to be located on the membrane), and the number of ROI was counted. The cpEGFP and mCherry fluorescence intensity ratio (GR ratio) in the ROI was calculated, and finally a report of the analysis results was exported. Comparing the change of GR ratio before and after adding drug, it can be determined whether the fluorescent sensor responds to the drug and the strength of the response.

[1] = system: Gαq-mediated signal transduction pathway; experiment: TGFα release in Gαq stable cell lines; type: cell-based; conditions: gradient concentrations of ACh
Description: The coupling of GRAB-ACh4.0 and downstream Gαq was detected. First, three stable cell lines were constructed based on the Gαq cell line: M3R (marked as CHRM3 in FIG. 51), GRAB-ACh4.0, and blank (marked as Gq in FIG. 51) cell lines; then, the release of TGFα was used to characterize the extent to which the Gαq protein was activated. […], causing the release of TGF-α with alkaline phosphatase even when there is no signal from Gαq. Therefore, TPA was added to cells as a positive control.

B1: GRAB-ACh4.0: positions 260-491 of M3R receptor truncated, cpEGFP inserted, linkers GG and HNAK (protein)
chain: MTLHNNSTTSPLFPNISSSWIHSPSDAGLPPGTVTHFGSYNVSRAAGNFSSPDGTTDDPLGGHTVWQVVFIAFLTGILALVTIIGNILVIVSFKVNKQLKTVNNYFLLSLACADLIIGVISMNLFTTYIIMNRWALGNLACDLWLAIDYVASNASVMNLLVISFDRYFSITRPLTYRAKRTTKRAGVMIGLAWVISFVLWAPAILFWQYFVGKRTVPPGECFIQFLSEPTITFGTAIAAFYMPVTIMTILYWRIYKETEGGNVYIKADKQKNGIKANFHIRHNIEDGGVQLAYHYQQNTPIGDGPVLLPDNHYLSVQSKLSKDPNEKRDHMVLLEFVTAAGITLGMDELYKGGTGGSMVSKGEELFTGVVPILVELDGDVNGHKFSVSGEGEGDATYGKLTLKFICTTGKLPVPWPTLVTTLTYGVQCFSRYPDHMKQHDFFKSAMPEGYIQERTIFFKDDGNYKTRAEVKFEGDTLVNRIELKGIDFKEDGNILGHKLEYNHNAKTLSAILLAFIITWTPYNIMVLVNTFCDSCIPKTFWNLGYWLCYINSTVNPVCYALCNKTFRTTFKMLLLCQCDKKKRRKQQYQQRQSVIFHKRAPEQAL
M3R receptor; Opera Phenix
  detectable acetylcholine concentration: 10^−9 to 10^−5 mol/L
M3R receptor; saturated ACh, confocal perfusion
  average response of 18 cells: more than 250%
M3R receptor; saturated concentration of ACh, confocal perfusion
  response in a single cell: more than 250%
[1]
  activation of Gαq-mediated signal transduction pathway: does not activate the downstream Gq-mediated signaling pathway; also recorded: did not activate the Gαq-mediated signal transduction pathway
